Measured values: paper PMC4336329 (PLoS ONE, 2015)
About 2,200 (0.71%) of roughly 310,000 compounds showed an effect of 50% or more. The effect is printed as a negative number. Some of the results follow.

The molecules below were run against human ether-à-go-go-related gene (hERG) potassium channel (human, UniProt Q12809) (assay: primary screen, population patch clamp on CHO cells stably expressing hERG).
human ether-à-go-go-related gene (hERG) potassium channel, sequence (Q12809 whole entry, looked up): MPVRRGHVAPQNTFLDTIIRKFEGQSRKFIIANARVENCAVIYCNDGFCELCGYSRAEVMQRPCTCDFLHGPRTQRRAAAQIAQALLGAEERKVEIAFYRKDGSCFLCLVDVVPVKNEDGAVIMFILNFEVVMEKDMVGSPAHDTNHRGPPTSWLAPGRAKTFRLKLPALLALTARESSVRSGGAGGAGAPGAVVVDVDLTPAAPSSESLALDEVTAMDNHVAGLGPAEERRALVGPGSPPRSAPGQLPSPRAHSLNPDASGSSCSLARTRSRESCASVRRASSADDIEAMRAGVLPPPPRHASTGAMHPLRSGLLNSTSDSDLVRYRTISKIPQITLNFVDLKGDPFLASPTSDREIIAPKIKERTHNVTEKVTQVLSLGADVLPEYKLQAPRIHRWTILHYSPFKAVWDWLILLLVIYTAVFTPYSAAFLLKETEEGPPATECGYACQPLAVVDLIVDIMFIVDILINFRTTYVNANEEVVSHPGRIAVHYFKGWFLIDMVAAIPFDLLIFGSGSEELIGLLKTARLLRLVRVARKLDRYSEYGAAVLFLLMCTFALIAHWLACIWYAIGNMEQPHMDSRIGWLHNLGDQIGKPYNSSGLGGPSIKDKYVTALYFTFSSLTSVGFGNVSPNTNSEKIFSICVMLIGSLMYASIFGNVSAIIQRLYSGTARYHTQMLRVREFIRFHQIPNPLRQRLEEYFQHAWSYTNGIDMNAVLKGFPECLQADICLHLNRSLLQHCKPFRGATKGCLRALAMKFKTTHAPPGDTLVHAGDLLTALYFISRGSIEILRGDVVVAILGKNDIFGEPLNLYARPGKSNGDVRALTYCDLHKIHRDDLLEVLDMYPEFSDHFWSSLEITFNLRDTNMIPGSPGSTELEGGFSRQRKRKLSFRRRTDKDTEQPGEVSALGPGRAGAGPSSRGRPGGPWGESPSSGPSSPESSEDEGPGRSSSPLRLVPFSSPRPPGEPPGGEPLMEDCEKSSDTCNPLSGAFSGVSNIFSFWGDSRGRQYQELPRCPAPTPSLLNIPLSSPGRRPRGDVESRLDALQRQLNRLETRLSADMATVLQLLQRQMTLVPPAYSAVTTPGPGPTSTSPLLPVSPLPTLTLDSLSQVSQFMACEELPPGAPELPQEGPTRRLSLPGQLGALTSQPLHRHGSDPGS

Compound	hERG current change (%, negative = inhibition) at 1uM
O=C(NC1CC1)C1=C[C@@H](C2CCCCC2)C[C@@H](OCCCCO)O1	10.8%
Cc1ccc(C(=O)N/C(=C\c2ccco2)C(=O)NCCN2CCOCC2)cc1C	8.38%
CC(C)CCn1nnnc1C(c1ccc(F)cc1)N1CCN(C(=O)c2ccco2)CC1 (stereo not drawn)	2.42%
O=c1c2ccccc2oc2nc(-c3ccco3)n(-c3ccccc3)c(=O)c12	5.11%
C=CCn1c(SCC(=O)NCC2CCCO2)nnc1C1CCCCC1 (stereo not drawn)	14.7%
Cc1cc(C)cc(NC(=S)NC(=O)CCN2C(=O)c3ccccc3C2=O)c1	11.4%
O=C(NCc1cn2ccccc2n1)c1ccc(Br)o1	9.26%
N#CCS(=O)(=O)c1ccccc1	19.6%
COc1ccc(N(CC(=O)NC2CCCCC2)C(=O)CNC(=O)c2ccco2)cc1	6.67%
CCOC(CNC(=O)c1nnc(Cc2cc(OC)c(OC)c(OC)c2)o1)OCC	8.8%
CCOC(=O)c1c(C)nc2sc(C(=O)Nc3ccccc3)c(N)c2c1-c1ccc(OC)cc1	14.6%
O=C(CCN1CCCCC1)NCNC(=O)CCN1CCCCC1	11.3%
C=CCN1CC[C@@]2(C)c3cc(O)ccc3CC1[C@@H]2C.Cl	0.191%
Cc1ccccc1NC(=O)NCCc1c[nH]c2ccccc12	10.5%
CC1CCN(S(=O)(=O)CCNC(=O)c2ccc3c(c2)OCO3)CC1	0.605%
CC(=O)c1c(C)[nH]c(C(=O)NCc2cccs2)c1C	8.54%
CCOc1ccc2nc(SCC#N)c(C#N)cc2c1	8.26%
CCOc1cc(N2CCOCC2)c(OCC)cc1NC(=O)CN1C(=O)NC2(CCc3ccccc32)C1=O (stereo not drawn)	-7.8%
O=C(N/N=C/c1ccccn1)c1cccc(S(=O)(=O)N2CCCC2)c1	2.48%
COc1ccc(CCNC(=O)Cn2cccc2C(=O)c2ccccc2)c(OC)c1	13.6%
C=CCn1c(COc2ccc(F)cc2)nnc1SCC(=O)NC1CC1	12.6%
COc1ccc(C(=O)N2CCC(n3c(C)nc4cc(F)ccc43)CC2)cc1OC	-41.8%
COc1cccc(NC(=O)Cn2c(CCC(=O)O)ccc2-c2ccc(C)cc2)c1	7%

Compound	hERG current change (%, negative = inhibition) at 1uM
Cc1ccc(NC(=O)CSc2nc(=O)n(CCCN3CCOCC3)c3c2CCCC3)c(C)c1	9.2%
Cc1ccc(NC(=O)CN(C)CC(=O)Nc2cccc(F)c2)cc1[N+](=O)[O-]	1.27%
Cc1cc(NC(=O)Nc2ccc(Cl)c(Cl)c2)n(-c2ccccc2)n1	10.3%
COc1ccc(/C=C2\SC(=O)N(CCC(=O)Nc3ccc(S(=O)(=O)Nc4nccs4)cc3)C2=O)cc1	8.56%
C=CCOc1ccccc1CN1CCCN(C)CC1	11.7%
CSc1nnc(C)c(=O)n1COC(=O)COc1ccc2ccccc2c1	12.2%
CCSc1ccccc1C(=O)NCc1ccc2c(c1)OCO2	-2.88%
O=C(COC(=O)CCc1nc2ccccc2s1)Nc1ncc(Cl)cc1Cl	8.4%
Cc1cc(C)c(NC(=O)CNC(=O)Cc2sc(C)nc2-c2ccc(F)cc2)c(C)c1	12.4%
Cc1noc(C)c1C(=O)Nc1nnc(-c2ccccc2)s1	7.78%
O=C1CC(c2ccccc2)CN1C(=O)c1cncc(Br)c1 (stereo not drawn)	13.3%
Cc1cc(C)cc(C(=O)Oc2coc(CSc3nnc(NC(=O)C4CC4)s3)cc2=O)c1	6.84%
CC(C)CC(O)C1CCN(C(=O)CCc2nnc(-c3ccc4c(c3)OCO4)o2)CC1 (stereo not drawn)	13.6%
CN(C)c1ccc(/C=N/NC(=O)CCc2c[nH]c3ccccc23)cc1	6.21%
C/C(Cn1cnc([N+](=O)[O-])n1)=N\NC(=O)c1ccc(F)cc1	19.3%
CCc1ccc(NC(=O)CCc2nc3sc4c(c3c(=O)[nH]2)CCCC4)cc1	1.53%
CSC1=NCCN1C(=O)C(C)(C)Oc1ccc(Cl)cc1	7.31%
COc1ccccc1-c1coc2c(CN3CCC(C)CC3)c(O)ccc2c1=O	14.3%
CC(C)(C)C(=O)Nc1ccc(/C=C/C(=O)c2ccco2)cc1	13.9%
Clc1cccc(-c2nc3nc4ccccc4nc3n2Cc2ccccc2)c1	9.82%
COc1ccc(N(Cc2cc3ccc(C)cc3[nH]c2=O)C(C)=O)cc1	8.33%
Cc1[nH]c2ccccc2c1CC(=O)O	9.08%
Cc1c(NN=C(C#N)C#N)c(=O)n(-c2ccccc2)n1C	13.4%

Compound	hERG current change (%, negative = inhibition) at 1uM
Fc1ccc(-c2nnc(-c3ccc(Cl)cc3Cl)o2)cc1	-0.777%
Fc1ccc(-c2nnc(N3CCOCC3)c3ccccc23)cc1F	15%
CCN(CC)CCN1C(=O)C(=O)/C(=C(/O)c2ccc(F)cc2)C1c1cccnc1 (stereo not drawn)	14.9%
O=c1c2c3c(sc2nc2n1CCC2)CCC3	10.8%
FC(F)(F)c1ccccc1NC(=S)NN=C1CCCCCC1	1.7%
O=C(NC(=S)Nc1cc(-c2nc3ccccc3[nH]2)ccc1Cl)c1ccc2c(c1)OCO2	17.5%
COc1ccc2nc(NS(=O)(=O)c3ccc(NC(C)=O)cc3)sc2c1	14.5%
Cc1cc(C(=O)CCl)c(C)n1CC1COc2ccccc2O1 (stereo not drawn)	6%
O=C(O)c1cccc(NS(=O)(=O)c2ccc(NC(=O)c3ccco3)cc2)c1	13.9%
COc1cc2c(cc1OC)C(c1ccc(Br)cc1)N(C(=O)c1ccccc1C(=O)O)CC2 (stereo not drawn)	10.4%
O=C(COc1ccccc1Cl)N1CCN(C(=O)c2ccco2)CC1	8.67%
COc1ccc(N(C)S(=O)(=O)c2ccc3c(c2)oc(=O)n3C)cc1	10.7%
CCOc1ccccc1NCc1nnc(-c2ccccc2)o1	14.9%
Cc1ccccc1-c1nc(-c2ccccn2)no1	4.47%
O=C1CSC(=Nc2ccccc2[N+](=O)[O-])N1	9.39%
CCOC(=O)N1CCN(Cc2nc3cc(NC(=O)C(C)C)ccc3n2CC)CC1	16.4%
COc1ccc(OC)c(NC(=O)c2cnc(Nc3ccccc3OC)c3ccccc23)c1	-3.53%
CCn1c2ccccc2c2nn(C)c(=N)nc21	-17.6%
CCC1CCCCN1S(=O)(=O)c1ccc(C(=O)N(CCCN(C)C)c2nc3cc4c(cc3s2)OCO4)cc1.Cl (stereo not drawn)	15.1%
CCc1nnc(NC(=O)CCN(c2ccc(C)cc2)S(=O)(=O)c2ccccc2)s1	17.6%
CC(C)CNS(=O)(=O)c1ccc(CCC(=O)NCc2cccnc2)cc1	0.985%
COc1ccc(CC(=O)Nc2c(C(=O)N3CCN(c4ncccn4)CC3)oc3ccccc23)cc1	-21.4%
COc1ccc(Cl)cc1NC(=O)CN(C)C(=O)C12CC3CC(CC(Cl)(C3)C1)C2	14.8%

Compound	hERG current change (%, negative = inhibition) at 1uM
CN(C)CCNC(=O)c1ccc(CS(=O)(=O)c2ccc(Br)cc2)o1	3.84%
Cc1c(C(=O)NC(C)c2ccncc2)oc2ccccc12 (stereo not drawn)	-19.8%
CC1CC(=O)NN=C1c1cccs1 (stereo not drawn)	3.75%
CCc1ccc(C(C)NC(=O)C2(C)CC2(Br)Br)cc1 (stereo not drawn)	18%
CSc1ccccc1NC(=O)Cc1ccc(Br)cc1	3.18%
Brc1ccc2c(c1)CN1CCCC1=N2	5.54%
FC(F)(F)c1ccc2c(c1)nnn2C1CCN(Cc2nnnn2Cc2ccccc2)CC1	-32.4%
CCN1C(=Nc2ccc(Cl)cc2)SC/C1=C\C(=O)OC	4.11%
Cc1ccc2c(c1)N(C(=O)CCC(=O)NCC(C)c1ccccc1)CC(C)O2 (stereo not drawn)	-2.49%
Cc1cccc(N2CCN(C(=O)c3c(-c4ccccc4)noc3C)CC2)c1C	10.1%
COc1ccccc1N1CCN(CC(=O)N2N=CCC2c2ccccc2)CC1 (stereo not drawn)	0.341%
CCCCN1CCc2c([nH]c3c(C)cccc23)C1=O	-3.47%
COc1ccc(CCn2c(O)c(/C=N/N3CCCCC3)c(=O)[nH]c2=O)cc1OC	10.1%
COc1ccccc1Nc1ccc(NC(=O)c2cccc([N+](=O)[O-])c2C)cc1	14.6%
O=C(Nc1cccc(F)c1)C1CCN(S(=O)(=O)c2cnc[nH]2)CC1	17.7%
Cc1nc2cc(NCc3ccc(Cl)cc3)ccc2n1C	-30.1%
Cc1cc(C)cc(NC(=O)COC(=O)CCn2c(C)csc2=O)c1	5.96%
CCc1ccc(OCCOCC(O)CN2CCN(Cc3ccc(Cl)cc3)CC2)cc1.Cl (stereo not drawn)	-22.3%
COc1ccc(N(CC(O)CN2CCOCC2)S(=O)(=O)c2ccc(C)cc2)cc1 (stereo not drawn)	-6.48%
COc1cc2c(cc1NC(=O)CSc1ccccc1)oc1ccccc12	20.6%
CCCC(=O)Nc1c(-c2cccc(C)c2)c(=O)c2ccccc2n1C	5.62%
